{"source": "paper PMC9869975", "about": "“The β2-adrenergic receptor in the apical membrane of intestinal enterocytes senses sugars to stimulate glucose uptake from the gut” (Frontiers in Cell and Developmental Biology, 2023)", "key": {"[1]": {"molecular_target": "T1, β2-adrenergic receptor (β2-AR) (Homo sapiens, UniProt P07550)", "assay": "inhibition of calcium response to […] epinephrine in ADRB2/GNA15 Flp-In-293 cells", "format": "cell-based", "parameters": "gene ADRB2"}, "[2]": {"molecular_target": "T1, β2-adrenergic receptor (β2-AR)", "assay": "STD-NMR (STDD against membranes without recombinant β2-AR), […] glucose", "parameters": "gene ADRB2; membranes of Flp-In-293 cells stably transfected with human ADRB2 and GNA15"}, "[3]": {"molecular_target": "T1, β2-adrenergic receptor (β2-AR)", "assay": "dose-response of calcium signal, blocked by ICI […]", "format": "cell-based", "parameters": "gene ADRB2"}}, "data": [{"smiles": "CC(C)(C)NCC(O)COc1cccc2[nH]cc(CC(N)=O)c12", "note": "(stereo not drawn) [CD3-403]", "values": [{"measurement": "IC50", "setting": "[1]", "value": 0.046, "unit": "µM"}]}, {"smiles": "OC[C@H]1OC(O)[C@H](O)[C@@H](O)[C@@H]1O", "note": "(stereo partly drawn) [glucose]", "values": [{"measurement": "STD-NMR (STDD against membranes without recombinant β2-AR), 10 mM glucose", "setting": "[2]", "value": "The difference STDD spectrum provides clear evidence for direct binding of glucose to the β 2-AR"}]}, {"smiles": "OC[C@H]1O[C@H](O[C@H]2[C@H](O)[C@@H](O)[C@@H](O[C@H]3[C@H](O)[C@@H](O)C(O)O[C@@H]3CO)O[C@@H]2CO)[C@H](O)[C@@H](O)[C@@H]1O", "note": "(stereo partly drawn) [maltotriose]", "values": [{"measurement": "EC50", "setting": "[3]", "value": 10, "unit": "mM"}]}]}
